Reference: PubChem BioAssay AID1240 (Sanford-Burnham Center for Chemical Genomics, 2008)
Hit rate of the full screen: of about 50,000 compounds, about 800 (1.6%) showed an effect of 50% or more. The list shows a part of the results.

Target: Bcl-2-like protein 10 (Homo sapiens) (UniProt Q9HD36)
Experiment: TR3 peptide-Bcl-B binding displacers, biochemical primary FP assay, phenotype converters (AID 1240);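 note: 0% = Bcl-B with tracer peptide and DMSO and 100% = tracer peptide lacking Bcl-B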
Details: GST-Bcl-B / FITC-TR3 peptide fluorescence polarization; stronger effect = higher value; compound at 3.75 mg/L

Chain of UniProt Q9HD36 (Q9HD36 whole entry, looked up): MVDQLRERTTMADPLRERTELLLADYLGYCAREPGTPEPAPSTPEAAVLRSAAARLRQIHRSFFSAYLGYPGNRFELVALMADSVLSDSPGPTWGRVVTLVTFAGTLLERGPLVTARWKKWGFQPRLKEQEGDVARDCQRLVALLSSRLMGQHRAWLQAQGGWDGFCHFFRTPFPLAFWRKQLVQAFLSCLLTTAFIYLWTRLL

Point of comparison: `Cn1ccnc1SC/C=C/CSc1nccn1C`, displacement -3.5%. Against it:
- CCOC(=O)c1c(NC(=S)NCCc2ccccc2)sc2c1CC(C)(C)OC2 — lower, -8.3%
- O=C(Nc1ccccc1)c1cc(Br)ccc1Cl — higher, 18.4%
- O=C1N=c2ccc(Cl)cc2=C1c1sc(=O)n(-c2ccccc2)c1O — lower, -23.7%
- CCc1ccccc1NC(=O)c1c(NC(=O)c2cccs2)sc2c1CCC2 — lower, -3.8%
- COC(=O)c1c(C)oc2ccc(OCC(N)=O)cc12 — higher, 11.7%
- C=CCN1C(=O)/C(=C\c2ccc(OCc3cccc4ccccc34)cc2)SC1=S — higher, 87.1%
- Cc1ccc(C)c(N(CC(=O)Nc2cc(Cl)ccc2C)S(=O)(=O)c2ccccc2)c1 — lower, -7.5%
- O=C(N/N=C/c1ccncc1)c1cc(-c2ccccc2)n[nH]1 — lower, -11.4%
- COc1ccccc1NC(=O)/C(=C/c1cccc([N+](=O)[O-])c1)NC(=O)c1ccccc1 — higher, 2.3%
- COc1ccc2oc(C)c(C(O)c3ccccc3)c2c1 (stereo unspecified) — higher, 0.2%
- CCc1ccccc1N(CC(=O)NCCc1ccccc1)S(C)(=O)=O — higher, 2.8%
- COCCOC(=O)c1ccc(NC(=O)Nc2ccc(Cl)cc2)cc1 — higher, 2.8%
- O=c1cc(-c2ccccc2)nc(NNc2ccccc2)[nH]1 — lower, -4.1%
- O=C(NC(=S)N1CCOCC1)C12CC3CC(CC(C3)C1)C2 — higher, 3.6%
- Cc1ccc(N(CC(=O)O)S(=O)(=O)c2ccc(F)cc2)cc1 — higher, 8.4%
- COC(=O)COc1ccc(/C=C2\C(=O)NC(=O)N(c3ccc(OC)cc3)C2=O)cc1OC — lower, -17.1%
- O=C(O)COc1ccc(N2C(=O)c3ccc(C(=O)O)cc3C2=O)cc1 — higher, 8.1%
- COc1ccc(C(=O)Nc2cccc(C(=O)Nc3cccc(Cl)c3)c2)cc1 — lower, -9.3%
- COC(=O)COc1ccc(/C=C2\C(=O)NC(=O)N(c3ccc(Br)cc3)C2=O)cc1OC — higher, 7.5%
- COC(=O)C1=C(C)N=c2s/c(=C\c3cc(Br)c(OC)cc3OC)c(=O)n2C1c1ccccc1 (stereo unspecified) — higher, 15.7%
- COc1cc2ccccc2cc1C(=O)Nc1ccc2[nH]c(=O)[nH]c2c1 — higher, 7.3%
- COC(=O)c1ccccc1NC(=O)/C=C/c1ccccc1 — higher, 16.4%
- Cc1nnc(C)n1/N=C\c1ccc(C(F)(F)F)cc1 — lower, -10%
- CC(CO)(CO)Nc1ccc(C(F)(F)F)cc1[N+](=O)[O-] — lower, -4.5%
- O=C(Nc1ccc(Cl)cc1)c1cc2n(n1)C(C(F)(F)F)CC(c1ccccc1)N2 (stereo unspecified) — higher, 3.4%
- NC(=O)c1ccccc1N=Cc1ccccc1[N+](=O)[O-] — lower, -18%
- CCCCC(=O)NNC(=O)COc1ccc(Cl)cc1 — lower, -14.6%
- COC(=O)C1=C(C)N(C)C(C)=C(C(=O)OC)C1c1ccc(OC)c(OC)c1 — lower, -6.4%
- O=C(O)COc1ccc(/C=C2/C(=O)NC(=O)N(c3ccccc3)C2=O)cc1 — lower, -18.9%
- COc1ccc(OC)c(CN2CCN(S(C)(=O)=O)CC2)c1 — lower, -14%
- CCN1C(=O)/C(=C\c2ccc(C)cc2)SC1=S — higher, 2.3%
- Cc1ccc(C2C(C#N)=C(N)Oc3n[nH]c(C)c32)o1 (stereo unspecified) — higher, 2.3%
- O=c1[nH]c(O)c(C=Nc2ccc(F)c(F)c2)c(=O)[nH]1 — higher, 166%
- Cc1ccc(-c2nc3ncccc3o2)cc1NC(=O)c1ccc(-c2ccc(F)cc2)o1 — higher, 2.2%
- CCOc1ccc(CNc2cc([N+](=O)[O-])ccc2OC)cc1 — lower, -17.2%
- COC(=O)C1=C(C)NC2=C(C(=O)c3ccccc32)C1c1ccc(OCc2ccccc2Cl)c(Cl)c1 (stereo unspecified) — higher, 7.8%
- Cc1ccccc1OCCCCc1c(C)n[nH]c1C — lower, -8%
- COc1ccc(OC)c(NC(=O)c2ccc(CN3CCOCC3)cc2)c1 — higher, -3.1%
- COc1ccc(-c2c(C)nn(-c3ccccc3)c2N)cc1OC — higher, -1.2%
- O=C(N/N=C/c1c(Sc2ccccn2)nc2ccccn2c1=O)c1ccccc1 — higher, 39.3%
- CCOc1ccc(NS(=O)(=O)c2ccc(Br)cc2)cc1 — lower, -12.9%
- CC(=O)N1C(c2cnc(-c3ccccc3)c(C)c2)CC=C(C)C1c1ccccc1 (stereo unspecified) — lower, -4%
- O=C(O)c1cc(O)ccc1-c1ccc(O)cc1 — higher, 13.8%
- CCCCOc1ccc(NC(=O)C2CC(=O)N(c3ccc(C)cc3)C2)cc1 (stereo unspecified) — higher, 8%
- CN1CCN(c2nc3ccccn3c(=O)c2/C=C2\SC(=S)N(Cc3ccco3)C2=O)CC1 — lower, -58.4%
- Cc1cc(/C=C2\C(=O)NC(=S)N(c3ccc(Br)cc3)C2=O)c(C)n1-c1cccnc1 — higher, 0.7%
- COc1cc(NS(=O)(=O)c2ccc(Cl)cc2)c(OC)cc1Br — higher, 10.5%
- Cc1ccc(N2C(=O)CSC2c2cccc([N+](=O)[O-])c2)c(C)c1 (stereo unspecified) — higher, 0.2%
- O=c1oc2cc(OCc3ccccc3)c(Cl)cc2c2c1CCCC2 — lower, -8.8%
- COc1ccc(/C=C/C(=O)N2CCOCC2)cc1OC — higher, 9.4%
- O=C(NC1CCCCCC1)c1c(F)c(F)c(F)c(F)c1F — lower, -5.3%
- O=C(CN1C(=O)c2cccc3cccc(c23)C1=O)NCCN1CCOCC1 — higher, 11.3%
- COC(=O)c1n[nH]c(=O)c2ccccc12 — lower, -5.1%
- O=C(CSc1nnnn1-c1ccccc1)c1ccc(-c2ccccc2)cc1 — higher, 12.2%
- COc1cccc(OC)c1C(=O)NCc1ccc(C)cc1 — higher, 2.7%
- CCC(C)C(C(=O)O)N1C(=O)NC2NC(=O)NC21 (stereo unspecified) — lower, -4.7%
- COC(=O)c1c(N)sc(C(=O)Nc2ccc(C)cc2)c1C — higher, 2.8%
- O=C(Nc1ccc(N2CCOCC2)cc1)c1ccc(-c2cccc(Cl)c2)o1 — lower, -7.3%
- COc1ccc(CCNC(=O)C2CC2c2ccccc2)cc1OC (stereo unspecified) — higher, -0.9%
- CCOc1ccc(N=CC2=C(O)CC(c3ccccc3)CC2=O)cc1 (stereo unspecified) — lower, -4.6%
- c1ccc2c(c1)ncn2CCN1CCCCC1 — higher, 4.5%
- C=CCN1C(=O)/C(=C\c2cc(Cl)c(OCc3ccccc3F)c(OC)c2)SC1=S — higher, 11.5%
- Cc1cc(C)n(S(=O)(=O)c2ccc(Br)cc2)n1 — higher, 0.8%
- O=[N+]([O-])c1ccc(N/N=C/c2ccc(-c3ccc(Cl)cc3)o2)cc1 — lower, -4%
- CCOC(=O)c1c(NC(=O)CNC(C)C)sc2c1CCC2 — lower, -7.4%
- Cn1c(-c2cc3ccc(O)c(CN4CCOCC4)c3oc2=O)nc2ccccc21 — higher, 19.1%
- COc1ccc(Cl)cc1C(=O)Nc1ccc(Cl)cc1 — lower, -6.4%
- N/C(=N\OC(=O)c1cccc(Br)c1)c1cccnc1 — higher, 1.7%
- COc1ccc(CCNCCCc2ccccc2)cc1OC — higher, 7%
- Cc1ccc(OCCCNC(C)(C)C)c(C(C)(C)C)c1 — higher, 4.6%
- CCOc1ccc2cc(C=O)c(=O)[nH]c2c1 — lower, -8.8%
- Cc1c(-c2ccccc2)nc2ccccc2c1C(=O)Nc1ccc(N(C)C)cc1 — higher, 45.3%
- O=c1oc2ccc(Br)cc2cc1-c1csc(-c2cc3cc([N+](=O)[O-])ccc3oc2=O)n1 — lower, -5.4%
- Cc1cc(C)n(C(=O)c2ccc(C(C)(C)C)cc2)n1 — lower, -8.1%
- CC(C)CC(=O)Nc1nc(-c2ccc(Cl)c(Cl)c2)cs1 — lower, -6.5%
- O=[N+]([O-])c1ccccc1N[C@H]1O[C@H](CO)[C@@H](O)[C@@H]1O — higher, 6%
- O=C(COc1ccc(Cl)cc1Cl)Nc1ccc2c(c1)oc1ccccc12 — lower, -10.3%
- Cc1ccc(SCCNC(=O)CN(c2cccc(Cl)c2)S(=O)(=O)c2ccccc2)cc1 — higher, 1.6%
- O=C(CSc1ccccn1)N1c2ccccc2Sc2ccccc21 — higher, 13.3%
- CC1=CC(C)C(COC(=O)Nc2ccccc2)C(C)C1 (stereo unspecified) — higher, 9.8%
- COc1ccc(/C(O)=C2\C(=O)C(=O)N(CCc3ccccc3)C2c2cccc(F)c2)cc1 (stereo unspecified) — higher, 7.9%
- FC(F)(F)c1cccc(NC(=S)NCc2ccc3c(c2)OCO3)c1 — lower, -6.8%
- COC(=O)C(=C/C(C)=C/N1CCOCC1)C(=O)OC — higher, 15.2%
- Nc1nc2ccccc2n1/N=C/c1ccc([N+](=O)[O-])cc1 — higher, 5.8%
- NC(=O)c1cccc2c1-c1ccccc1/C2=N\O — higher, 2.8%
- CNC(=O)c1ccc(C(=O)c2cc(OC)ccc2OC)cc1 — lower, -6.6%
- O=[N+]([O-])c1ccccc1S(=O)(=O)Oc1ccc(/C=N/n2cnnc2)cc1 — higher, 2.2%
- NS(=O)(=O)c1ccc(CCNC2CC(=O)N(c3ccc(Cl)cc3)C2=O)cc1 (stereo unspecified) — lower, -6.1%
- O=C1C=CC(=O)N1c1ccc(Cl)cc1[N+](=O)[O-] — lower, -9%
- Cc1cc(F)ccc1NCc1ccncc1 — higher, 6.3%
- CC1(C)CC(=O)C2=C(C1)NC1=C(C(=O)CC(C)(C)C1)C2c1ccccc1 — higher, 0.8%
- Cc1cc(C(=O)N/N=C/c2cc(Br)ccc2O)n[nH]1 — lower, -21%
- CC(=O)Nc1ccc2oc(-c3ccccc3)nc2c1 — lower, -3.7%
- O=C1OC(c2ccccc2)=N/C1=C(\Sc1nc2ccccc2o1)c1ccccc1 — higher, 0.3%
- NC(=O)c1cc(NC(=O)c2cc(C(F)(F)F)cc(C(F)(F)F)c2)c(Cl)cc1Cl — lower, -11.3%
- COC(=O)c1cc(S(=O)(=O)N2CCCC2)c(Cl)cc1Cl — higher, -3.2%
- COc1ccc(S(=O)(=O)Nc2ccc(C#N)cc2)cc1 — higher, 2.2%
- Cc1ccc(N(CC(=O)Nc2ccc(Oc3ccccc3)cc2)S(C)(=O)=O)cc1Cl — higher, 3.4%
- CSc1nnc2c(n1)OC1(Nc3ccccc3-2)C(=O)Nc2ccccc21 (stereo unspecified) — higher, 10.8%
- C=CCC1(N(C(C)=O)c2ccccc2)CCCCC1 — lower, -10.4%
- CN=C(Nc1cccc(OC)c1)SC1CC(=O)N(c2ccccc2F)C1=O (stereo unspecified) — lower, -5.3%
- CCOc1ccccc1NC(=O)CN1C(=O)/C(=C\c2cc(OC)c(OC)c(OC)c2)SC1=S — higher, 36.8%
- O=C(/C=C/c1ccccc1)Nc1ccc2c(c1)OCCO2 — higher, 3.5%
- Cc1cccc(NC(=O)c2cccc(C(=O)Nc3cccc(C)c3)n2)c1 — lower, -5.4%
- CCOc1ccc(NC(=O)c2ccc(C(=O)c3ccccc3)cc2)c([N+](=O)[O-])c1 — lower, -11.2%
- CN1CCN(C(=O)c2ccc(Cl)cc2[N+](=O)[O-])CC1 — higher, 10%
- O=C(NCc1ccc(Cl)cc1)c1cccc(Br)c1 — higher, 5.1%
- COc1cc(CC(=O)N2CCOCC2)c(Cc2cc(OC)c(OC)cc2CC(=O)N2CCOCC2)cc1OC — higher, 5.1%
- O=C(O)c1ccccc1S(=O)CCO (stereo unspecified) — higher, 6.8%
- COc1cccc(-n2c(CCN3C(=O)c4ccccc4C3=O)nc3ccccc3c2=O)c1 — higher, 1.5%
